The GPR68 mutational scans of Howard et al. (2025)

B1: GPR68, Q15743 (parent)
chain: MGNITADNSSMSCTIDHTIHQTLAPVVYVTVLVVGFPANCLSLYFGYLQIKARNELGVYLCNLTVADLFYICSLPFWLQYVLQHDNWSHGDLSCQVCGILLYENIYISVGFLCCISVDRYLAVAHPFRFHQFRTLKAAVGVSVVIWAKELLTSIYFLMHEEVIEDENQHRVCFEHYPIQAWQRAINYYRFLVGFLFPICLLLASYQGILRAVRRSHGTQKSRKDQIQRLVLSTVVIFLACFLPYHVLLLVRSVWEASCDFAKGVFNAYHFSLLLTSFNCVADPVLYCFVSETTHRDLARLRGACLAFLTCSRTGRAREAYPLGAPEASGKSGAQGEEPELLTKLHPAFQTPNSPGSGGFPTGRLA

Legend:
[1] = variants of: B1; assay: cAMP reporter score (Enrich2 score, wild type = 0); higher = more signal; HEK293T, FACS bins
[2] = variants of: B1; assay: surface expression score (Enrich2 score, wild type = 0); higher = more signal; HEK293T, FACS bins

Variant	cAMP reporter score ([1]; pH 5.5)	cAMP reporter score ([1]; pH 6)	cAMP reporter score ([1]; pH 6, modulator: ogerin)	cAMP reporter score ([1]; pH 6.5, modulator: ogerin)	surface expression score [2]
F265D	0.358	1.62	-0.413	-0.1	1.55
F265E	-0.92	-0.974	-1.34	-1.01	0.567
F265G	-0.565	-0.534	-0.032	-0.39	0.168
F265H	-0.771	–	-1.24	-0.427	–
F265I	-0.454	-0.39	-0.271	-0.451	0.055
F265K	-1.39	-0.427	-0.874	-0.224	-1.35
F265L	-0.021	-1.16	-0.119	-0.375	0.935
F265M	-0.557	-0.589	-0.729	-0.013	0.696
F265N	-0.937	0.286	-0.729	-0.703	2.91
F265P	-0.967	-0.196	–	-0.788	-1.26
F265Q	1.07	0.64	0.234	-0.583	2.21
F265R	-0.615	-0.165	-0.114	-0.8	-1.04
F265S	0.392	-0.456	-0.101	-0.467	0.467
F265T	-0.745	–	-0.459	–	0.472
F265V	0.428	–	0.063	2.04	1.41
F265W	-0.926	–	-0.646	-1.09	0.816

The least precise scores are not listed. Not listed are two conditions whose scores span a narrow range. In variant names, del marks residues removed and ins residues inserted between the two positions. For some of these results: How much ogerin was present is not stated here.
